Assay results: PubChem BioAssay AID540317 (National Center for Advancing Translational Sciences (NCATS), 2011)
The campaign covered roughly 390,000 compounds. About 2,200 (0.56%) were called active. The inconclusive results got no clear call from the source; some entries with a clear call stand among them for comparison. The call rests on the fitted dose curve; in most records, active means well fitted inhibition curve with a large enough effect; inconclusive means small, poorly fitted or top-dose-only effect; inactive means no such curve, though single readings can be large or run the other way. Where the call is inconclusive, the potency comes from a doubtful curve fit.
Further: nearly all actives have a fitted effect of over 70% in size.
Potency means the concentration at half of the fitted maximal effect; tags describe the fitted curve by direction and shape.

These molecules were tested against Chromobox protein homolog 1 (Homo sapiens) (UniProt P83916) (assay: HTS for Inhibitors of HP1-beta Chromodomain Interactions with Methylated Histone Tails). Conditions: AlphaScreen HP1-beta / biotin-H3K9me3 peptide binding; series mostly up to 114 µM; activity change, negative = inhibition: at the top concentration.
Chain of UniProt P83916 (P83916 whole entry, looked up): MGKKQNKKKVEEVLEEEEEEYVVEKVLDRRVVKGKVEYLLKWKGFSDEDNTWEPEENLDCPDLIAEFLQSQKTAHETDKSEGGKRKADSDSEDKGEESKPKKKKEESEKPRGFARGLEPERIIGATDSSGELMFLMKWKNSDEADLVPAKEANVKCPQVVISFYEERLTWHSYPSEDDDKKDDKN
In short: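 AlphaScreen: HP1-beta (50 nM) preformed 30 min with biotin-H3(1-18)K9me3 peptide (50 nM) in PBS pH 7.4, 0.01% Tween-20. Compound added for 30 min at RT, then streptavidin donor/nickel chelate acceptor beads (10 ug/mL) for 30 min.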
With `CCC(C)NC(=O)c1c(C)oc2nc(C)nc(N3CCOCC3)c12` (stereo not drawn) the “activity change, negative = inhibition” value was inactive: 37%. For `Cc1ccnc(Nc2nc(-c3ccc(O)c(O)c3)cs2)c1`, the Potency was inconclusive: 44.7 µM [inhibitor, partial curve]. For `COc1ccc(OC)c(NC(=O)N2CC3CCCN3c3ccccc32)c1` (stereo not drawn), the Potency was inconclusive: 50.1 µM [inhibitor, partial curve]. For `Cc1nc(S/C(=C\c2ccc(-c3ccc(C(=O)O)c(Cl)c3)o2)C(=O)O)n[nH]1`, the Potency was active: 20 µM. In the case of `COc1ccc(S(=O)(=O)NCC(c2ccc(N(C)C)cc2)N2CCc3ccccc32)cc1F` (stereo not drawn), the Potency is reported as inconclusive: 20 µM [inhibitor, full curve]. In the case of `CCN(CC)c1ccc(N)cc1`, the Potency is reported as active: 12.6 µM. In the case of `CC1CCN(c2ccc(S(=O)(=O)NC3=NCCCCC3)cc2[N+](=O)[O-])CC1`, the Potency is reported as inconclusive: 79.4 µM [inhibitor, single point]. For `CCOC(=O)SC1=N/C(=C\c2ccc(N(C)C)cc2)C(=O)S1`, the Potency was active: 35.5 µM. `CCOC(=O)c1c(N2CCN(c3ccccc3)CC2)cc(C)nc1C` was tested, and the Potency was inconclusive: 14.1 µM [inhibitor, partial curve, poor fit]. In the case of `COCCNCC#CCOc1ccc(OC)cc1`, the Potency is reported as inconclusive: 50.1 µM [inhibitor, partial curve]. `CCN1CCN(c2ccc(NC(=O)c3ccc(Cl)c(S(=O)(=O)N4CCCC4)c3)cc2)CC1` was tested, and the Potency was inconclusive: 70.8 µM [inhibitor, partial curve]. In the case of `Cc1ccsc1CN(C)CC(=O)Nc1ccc([N+](=O)[O-])cc1Cl`, the Potency is reported as inconclusive: 25.1 µM [inhibitor, partial curve]. For `Cc1cc(N=Nc2ccc3ccccc3c2)ccc1O`, the Potency was active: 50.1 µM. For `COc1ccc(N2CCN(CCC(O)c3ccc4ccccc4c3)CC2)cc1` (stereo not drawn), the Potency was inconclusive: 31.6 µM [inhibitor, partial curve, poor fit]. In the case of `CCc1ccccc1NC(=O)Cn1nc(N2CCN(c3ccccc3OC)CC2)ccc1=O`, the “activity change, negative = inhibition” value is reported as inactive: 16.4%. For `CCN(CC)S(=O)(=O)c1ccc(C)c(NC(=O)CNCCN(C(C)C)C(C)C)c1`, the Potency was inconclusive: 22.4 µM [inhibitor, partial curve, poor fit]. In the case of `CCN1CCN(CCC2Oc3cc([N+](=O)[O-])ccc3NC2=O)CC1` (stereo not drawn), the “activity change, negative = inhibition” value is reported as inactive: 47.9%. `COc1ccc(C)cc1N1C(=N)/C(=C2/Nc3ccccc3S2)C(c2ccccc2)C1=O` (stereo not drawn) was tested, and the Potency was inconclusive: 17.8 µM [inhibitor, full curve]. For `COc1ccc(-c2c3c(=O)n(C)c(=O)n(C)c3cn2-c2ccc(O)cc2)cc1`, the Potency was inconclusive: 50.1 µM [inhibitor, partial curve]. `COc1ccc(C2=C(Nc3ccc(Br)c(C)c3)c3ccccc3C2=O)cc1` was tested, and the Potency was inconclusive: 10 µM [inhibitor, partial curve, poor fit]. With `CC1=NN(Cc2ccccc2)C(=O)/C1=C\c1ccc(N(C)C)cc1` the Potency was inconclusive: 15.8 µM [inhibitor, partial curve, poor fit]. For `CCOC(=O)N1CCN(C(=O)CSc2nc(-c3cccc(C)c3)ns2)CC1`, the “activity change, negative = inhibition” value was inactive: -5.42%. `CCc1nc(-c2cc(S(=O)(=O)N3CCN(c4ccc(OC)cc4)CC3)ccc2OC)no1` was tested, and the Potency was inconclusive: 11.2 µM [inhibitor, partial curve]. In the case of `Cc1cc(O)c(N)c(C)c1Cl`, the Potency is reported as inconclusive: 56.2 µM [inhibitor, single point]. For `COc1cccc2c1cc1c(=O)n(CC(=O)N3CCN(c4cccc(C(F)(F)F)c4)CC3)nc(C)n12`, the “activity change, negative = inhibition” value was inactive: 17.9%. With `Cc1ccc(Cl)cc1N1CCN(C(=O)Cc2cn(C)c3ccccc23)CC1` the Potency was inconclusive: 35.5 µM [inhibitor, partial curve]. With `COc1ccccc1OCCCCN1CCN(C(c2ccccc2)c2ccccc2)CC1` the Potency was inconclusive: 70.8 µM [inhibitor, partial curve]. In the case of `CCCSc1oc(-c2ccco2)nc1S(=O)(=O)c1ccc(Br)cc1`, the “activity change, negative = inhibition” value is reported as inactive: 21%. With `Cn1c(-n2cccc2)c(-c2c(-c3ccc(F)cc3)[nH]c3c2c(=O)n(C)c(=O)n3C)c(=O)n(C)c1=O` the Potency was inconclusive: 31.6 µM [inhibitor, single point]. For `CC1=C(c2ccc(C(C)C)cc2)S(=O)(=O)N=C1N1CCC(C(=O)NCc2ccccc2)CC1`, the “activity change, negative = inhibition” value was inactive: 12.2%. For `COC(=O)c1cc(-c2ccc(C)o2)nc2ccccc12`, the Potency was inconclusive: 22.4 µM [inhibitor, partial curve, poor fit]. For `O=C(CSc1nnnn1C1CC1)N1CCN(c2ccc(O)cc2)CC1`, the Potency was inconclusive: 89.1 µM [inhibitor, single point]. With `O=C(N/N=C/c1cnc(N2CCOCC2)s1)c1ccccc1` the Potency was inconclusive: 89.1 µM [inhibitor, single point]. With `Cn1c(SCc2cccc(Br)c2)nc2c1c(=O)[nH]c(=O)n2C` the “activity change, negative = inhibition” value was inactive: 38.7%. For `Nc1[nH]n2c(=O)cc(-c3ccccc3)nc2c1N=Nc1ccccc1`, the “activity change, negative = inhibition” value was inactive: -11.1%. `CN(C)c1ccc(CN(CC2CCCO2)C(=O)c2cc3ccccc3o2)cc1` (stereo not drawn) was tested, and the Potency was inconclusive: 56.2 µM [inhibitor, partial curve, poor fit]. With `COc1ccc(/C=N/N2CCN(Cc3ccc(C)cc3)CC2)cc1Br` the Potency was inconclusive: 17.8 µM [inhibitor, full curve]. In the case of `Cc1sc(NC(=O)c2ccco2)c(C(c2cccnc2)N2CCN(c3ccc(F)cc3)CC2)c1C` (stereo not drawn), the “activity change, negative = inhibition” value is reported as inactive: -11.7%. For `C=CC(=O)Nc1cccc(Oc2ccnc3[nH]ccc23)c1`, the Potency was inconclusive: 70.8 µM [inhibitor, partial curve]. With `COc1cc(C2CC(=O)N3CN(Cc4ccco4)CSC3=C2C#N)ccc1OCc1ccccc1` (stereo not drawn) the Potency was inconclusive: 17.8 µM [inhibitor, full curve]. With `O=C(O)CC/C(=N\Nc1ccc(S(=O)(=O)N2CCOCC2)cc1[N+](=O)[O-])c1cccs1` the Potency was inconclusive: 50.1 µM [inhibitor, partial curve, poor fit]. `OCCN(Cc1ccccc1)Cc1ccccc1O` was tested, and the Potency was active: 79.4 µM. For `O=C(NCc1ccco1)C1Cc2ccccc2CN1S(=O)(=O)c1ccccc1F` (stereo not drawn), the Potency was inconclusive: 70.8 µM [inhibitor, partial curve, poor fit].
